In ChEMBL document CHEMBL1130038, “1,2-Diarylpyrroles as potent and selective inhibitors of cyclooxygenase-2” (J Med Chem, 1997):

Assays:
[1] = target: T1, Prostaglandin G/H synthase 2 (Homo sapiens, UniProt P35354)
T1 sequence (P35354 whole entry): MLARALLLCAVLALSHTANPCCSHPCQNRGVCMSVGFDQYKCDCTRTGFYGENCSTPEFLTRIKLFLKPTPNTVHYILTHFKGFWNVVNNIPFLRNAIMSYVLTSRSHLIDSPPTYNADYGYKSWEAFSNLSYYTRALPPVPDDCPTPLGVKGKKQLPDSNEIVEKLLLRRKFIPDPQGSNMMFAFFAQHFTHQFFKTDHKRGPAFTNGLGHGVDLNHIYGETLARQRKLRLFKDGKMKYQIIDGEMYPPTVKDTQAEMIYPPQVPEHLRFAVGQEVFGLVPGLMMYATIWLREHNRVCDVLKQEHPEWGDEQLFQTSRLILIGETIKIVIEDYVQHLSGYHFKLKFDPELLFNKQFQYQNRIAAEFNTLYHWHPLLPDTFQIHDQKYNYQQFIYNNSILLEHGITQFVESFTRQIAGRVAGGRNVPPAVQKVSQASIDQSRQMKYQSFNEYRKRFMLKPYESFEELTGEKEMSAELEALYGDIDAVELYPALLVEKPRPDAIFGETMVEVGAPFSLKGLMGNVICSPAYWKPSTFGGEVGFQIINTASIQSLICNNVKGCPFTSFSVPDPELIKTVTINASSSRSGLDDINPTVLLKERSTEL

[2] = target: T1, Prostaglandin G/H synthase 2; remark: listed apart in the source

| Compound | IC50 [1] | IC50 [2] |
| --- | --- | --- |
| CS(=O)(=O)c1cccc(-n2cccc2-c2ccc(F)cc2)c1 | > 100 µM |  |
| Cc1ccc(-c2ccc(S(C)(=O)=O)cc2)n1Cc1ccc(F)cc1 | > 100 µM |  |
| Cc1ccc(-c2ccc(F)cc2)n1-c1ccc(S(C)(=O)=O)cc1 | > 100 µM |  |
| CCCCn1c(C)ccc1-c1ccc(S(C)(=O)=O)cc1 | > 100 µM |  |
| CS(=O)(=O)c1ccc(-c2ccc(CCC(=O)O)n2-c2ccc(F)cc2)cc1 | > 100 µM |  |
| CNS(=O)(=O)c1ccc(-n2cccc2-c2ccc(F)cc2)cc1 | > 100 µM |  |
| O=S(=O)(c1ccccc1)c1ccc(-n2cccc2-c2ccc(F)cc2)cc1 | > 100 µM |  |
| CCS(=O)(=O)c1ccc(-n2cccc2-c2ccc(F)cc2)cc1 | > 100 µM |  |
| Cc1c(CN(C)C)cc(-c2ccc(S(C)(=O)=O)cc2)n1-c1ccc(F)cc1 | 100 µM |  |
| Cc1c(C(Oc2cccc(Cl)c2)C(F)(F)F)cc(-c2ccc(S(C)(=O)=O)cc2)n1-c1ccc(F)cc1 (configuration not stated) | > 100 µM |  |
| COc1ccc(-c2ccc(CCC(=O)O)n2-c2ccc(C(C)=O)cc2)cc1 | 4.6 µM | 2.4 µM |
| Cc1c(COc2cccc(Cl)c2)cc(-c2ccc(S(C)(=O)=O)cc2)n1-c1ccc(F)cc1 | 0.08 µM |  |
| CN(C)S(=O)(=O)c1ccc(-n2c(CCC(=O)O)ccc2-c2ccc(F)cc2)cc1 | 7.5 µM |  |
| Cc1ccc(-c2ccc(S(C)(=O)=O)cc2)n1C(C)C | > 100 µM |  |
| Cc1ccc(-c2ccc(S(C)(=O)=O)cc2)[nH]1 | > 100 µM |  |
| Cc1c(COc2ccc(Cl)cc2)cc(-c2ccc(S(C)(=O)=O)cc2)n1-c1ccc(F)cc1 | 0.03 µM |  |
| CCc1ccc(-c2ccc(S(C)(=O)=O)cc2)n1-c1ccc(F)cc1 | > 100 µM |  |
| Cc1c(S(=O)(=O)C(F)(F)F)cc(-c2ccc(S(C)(=O)=O)cc2)n1-c1ccc(F)cc1 | 0.06 µM |  |
| CS(=O)(=O)c1ccc(-n2cccc2-c2ccc(F)cc2)cc1Cl | > 100 µM |  |
| CN(C)S(=O)(=O)c1ccc(-n2cccc2-c2ccc(F)cc2)cc1 | > 100 µM |  |
| CS(=O)(=O)c1ccc(-c2ccc(C(F)(F)F)n2-c2ccc(F)cc2)cc1 | > 100 µM |  |
